Screen size: about 410,000 compounds; about 260 (0.063%) were called active. The inconclusive results got no clear call from the source; some entries with a clear call stand among them for comparison. Calls come from the whole dose curve; as a rule, active = well fitted activation curve with a large enough effect; inconclusive = small, poorly fitted or top-dose-only effect; inactive = no such curve, though single readings can be large or run the other way. No potency is given beside an inconclusive call; the fits are too rough.
test: qHTS for compounds that reverse cellular toxicity of Amyloid beta (A-beta) peptide in yeast: Primary Screen; settings: yeast expressing A-beta42, growth rescue, OD600, 48 h; growth rescue: at 46.1 µM (top of the series), 0% DMSO, 100% iron-clioquinol control; note: nearly all actives have a fitted effect of over 55% in size
In short: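 Yeast A-beta toxicity model in growth medium with pinned compounds, 48 h at 30 C; growth read as absorbance at 600 nm. Normalized to FeCl3/clioquinol equimolar mix (positive) and DMSO (negative).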
Potency is the fitted concentration of half-maximal effect; tags give direction and shape of the fitted curve.

| SMILES | Potency | growth rescue |
| --- | --- | --- |
| Cc1cccc(NC(=O)c2nc[nH]c2C(=O)N[C@@H](CC(C)C)C(=O)OC(C)(C)C)c1 | active: 6.31 µM | – |
| CCn1c(SCC(=O)NC2CCCC2)nnc1C(C)C | inconclusive [activator, single point] | – |
| CC(=O)c1cnc(Oc2cc(Cl)ccc2Cl)nc1C | inconclusive [activator, partial curve, poor fit] | – |
| CC1CN(c2nc3ccccn3c(=O)c2C=O)CC(C)O1 (centres undefined) | inconclusive [activator, single point] | – |
| NC(=O)N=Nc1c2[nH]c3ccccc3nc-2c2ccccc12 | inconclusive [activator, partial curve, poor fit] | – |
| COc1cccc2cc(-c3nc(Nc4cccc(C)c4C)sc3C)c(=O)oc12 | inconclusive [activator, partial curve, poor fit] | – |
| O=C(Cc1cccs1)NNC(=S)NC(=O)c1ccc(F)c(F)c1 | inconclusive [activator, single point] | – |
| CN(C)c1ccnc2sc(C(N)=O)c(N)c12 | – | inactive: -7.6% |
| CCOc1ccc(-n2cnnn2)cc1S(=O)(=O)N1CCC(C)CC1C (centres undefined) | inconclusive [activator, single point] | – |
| COc1ccc(NC(=S)NCCc2ccccc2)c(C)c1 | inconclusive [activator, partial curve] | – |
| COc1ccc(OC)c(NC(=O)COC(=O)CCCN=C2NS(=O)(=O)c3ccccc32)c1 | inconclusive [activator, single point] | – |
| O=C(Nc1ccc(N2CCOCC2)c(Cl)c1)c1cccc(F)c1 | inconclusive [activator, single point] | – |
| c1ccc(Nc2nnc(SCc3cccc4ccccc34)s2)cc1 | inconclusive [activator, single point] | – |
| CC(C)CNC(=S)N1CCN(c2nc(-c3ccc(Cl)cc3)cs2)CC1 | inconclusive [activator, partial curve] | – |
| CCCCN1CCc2c([nH]c3ccccc23)C1=O | – | inactive: 14.4% |
| S=C(NCCc1ccccc1)N1CCc2ccccc2C1 | inconclusive [activator, single point] | – |
| O=C(CN(C(=O)CCC(=O)Nc1nccs1)c1ccc2c(c1)OCO2)NCc1ccc(F)cc1 | inconclusive [activator, single point] | – |
| Cc1ccc(NC(=O)Cn2cc(C(=O)C3CCCCC3)c3ccccc32)cc1 | – | inactive: -3.57% |
| Cc1cccc(NC(=O)CCNS(=O)(=O)c2ccc3c(c2)CCN3C(=O)C2CC2)c1 | – | inactive: -9.34% |
| O=C(Nc1ccc(Nc2ccccc2)cc1)C(Cl)Cl | inconclusive [activator, single point] | – |
| COc1ccc(CCNC(=O)CCCn2nc(C)c3sc4ccccc4c3c2=O)c(OC)c1 | – | inactive: -2.56% |
| Cc1cccc(C(=O)N2CCC(=O)N([C@H](COCc3cccc(Cl)c3)Cc3ccccc3)CC2)c1 | – | inactive: 1.32% |
| O=C(NNC(=S)Nc1ccc(Cl)c(Cl)c1)c1ccccn1 | – | inactive: 0.58% |

| SMILES | Potency | growth rescue |
| --- | --- | --- |
| CCn1nc(-c2ccccc2)c(-c2ccccc2)c(C(=O)Nc2ccc(NC(C)=O)cc2)c1=O | – | inactive: 3.3% |
| Cc1nn(Cc2ccccc2Cl)c(C)c1NC(=O)c1cc(-c2ccc(F)cc2)on1 | – | inconclusive: -54.3% [activator] |
| Cc1c(C(=O)NCCSCc2c(F)cccc2Cl)cnn1-c1ccc(F)cc1 | – | inactive: -15.3% |
| c1ccc(-c2cc3c(ccc4nonc43)nn2)cc1 | – | inactive: -11.4% |
| C/C(=N\NC(N)=S)c1ccccc1 | inconclusive [activator, single point] | – |
| O=C(Cc1ccc(Cl)cc1)NNC(=S)NC(=O)c1cccs1 | inconclusive [activator, partial curve, poor fit] | – |
| CCOC(=O)C1=C(C)N(CC)C(=S)NC1c1ccc(Cl)cc1 (centres undefined) | inconclusive [activator, partial curve, poor fit] | – |
| COc1ccccc1N1CCN(/N=C\c2cccnc2)CC1 | inconclusive [activator, full curve] | – |
| CCN(CC)CCNC(=O)c1cn(CC)c2ccc(S(=O)(=O)N(C)C3CCCCC3)cc2c1=O | inconclusive [activator, single point] | – |
| CC1(C)Nc2ccccc2N(Cc2ccc([N+](=O)[O-])cc2)C1=O | inconclusive [activator, partial curve, poor fit] | – |
| Cc1nc2ccc(S(=O)(=O)CCC(=O)Nc3ccc(C(C)C)cc3)cc2s1 | – | inactive: 11.2% |
| Fc1cccc(NC(=S)NCc2ccccn2)c1 | inconclusive [activator, single point] | – |
| CC(C)(C)c1ccc(C(=O)Nc2ccc(C(=O)OCc3cc(=O)n4ccsc4n3)cc2)cc1 | – | inactive: -17.8% |
| Cc1csc(NC(=O)C(NC(=O)c2ccccc2F)C(C)C)n1 (centres undefined) | inconclusive [activator, single point] | – |
| CCCNC(=O)c1cc(C2CCCCN2C(=O)c2ccc(NC(C)=O)cc2)on1 (centres undefined) | inconclusive [activator, single point] | – |
| Cc1cc(Cl)ccc1NC(=O)CN1CCC(C(O)(c2ccccc2)c2ccccc2)CC1 | inconclusive [activator, partial curve, poor fit] | – |
| C=C(C)Cn1c(CCn2c3ccccc3c3ccccc32)n[nH]c1=S | inconclusive [activator, full curve] | – |
| CC(=O)c1ccc(NC(=O)C2CCCC2)cc1 | inconclusive [activator, single point] | – |
| Fc1ccc(CCNC(=S)Nc2ccc(F)cc2)cc1 | inconclusive [activator, single point] | – |
| Cc1ccc2cc(C#N)c(SCC(=O)N3CCCc4ccccc43)nc2c1 | inconclusive [activator, full curve, poor fit] | – |
| Cc1cccc(-c2cnc(C(O)c3ccc(-c4ccccc4)cc3)[nH]2)c1 (centres undefined) | inconclusive [activator, single point] | – |
| O=C(NNC(=S)Nc1ccc(F)c(Cl)c1)c1ccccc1Br | inconclusive [activator, partial curve, poor fit] | – |
| CCCCOC(=O)c1ccc(NC(=O)COC(=O)C2CC2C)cc1 (centres undefined) | inconclusive [activator, single point] | – |

| SMILES | Potency | growth rescue |
| --- | --- | --- |
| CCn1c(COc2cccc(C)c2)nc2ccccc21 | inconclusive [activator, full curve] | – |
| CCc1ccc2c(c1)C(NC(C)=O)C(=O)N2CCN1CCOCC1 (centres undefined) | inconclusive [activator, partial curve, poor fit] | – |
| Cc1ccc(CN2C(=O)C(O)(CC(=O)c3ccc(C)cc3)c3ccccc32)cc1 (centres undefined) | inconclusive [activator, single point] | – |
| CCC(C)c1ccc(NC(=S)Nc2ccc(OC)cc2C)cc1 (centres undefined) | inconclusive [activator, partial curve, poor fit] | – |
| CCOc1cc(/C=N/Nc2nnc(C)n2N)ccc1O | inconclusive [activator, partial curve] | – |
| Fc1ccccc1Cn1cc(C(=S)N2CCOCC2)c2ccccc21 | inconclusive [activator, single point] | – |
| COc1cccc(C(=O)Nc2nnc(-c3ccc(F)cc3)o2)c1 | inconclusive [activator, partial curve, poor fit] | – |
| COc1ccc(NC(=O)c2ccco2)cc1NC(=O)c1ccc(C)cc1 | – | inactive: -1.4% |
| O=C(CSc1nc2c([nH]c3ccccc32)c(=O)n1-c1ccccc1)N1CCCc2ccccc21 | – | inactive: -10.4% |
| O=C(COC(=O)C1CCC(=O)N1)Nc1ccccc1OC(F)F (centres undefined) | inconclusive [activator, full curve] | – |
| O=C(CSCc1ccc(F)cc1)NCc1cccs1 | inconclusive [activator, partial curve, poor fit] | – |
| CCOc1ccc(-c2cccc(NC(=O)COc3ccc(Cl)cc3)c2)nn1 | inconclusive [activator, full curve, poor fit] | – |
| COc1ccc(C(=O)NC(=S)NNC(=O)c2c(-c3ccccc3)noc2C)cc1 | inconclusive [activator, full curve] | – |
| Cn1nc(CC(=O)Nc2ccc3c(c2)CCC3)c2ccccc2c1=O | – | inactive: 3.76% |
| COc1ccccc1Nc1nc(N)nc(CSC(=S)N2CCN(c3ccccc3)CC2)n1 | inconclusive [activator, partial curve] | – |
| CCOC(=O)COn1c(=O)c(-c2ccc(C)cc2)[n+]([O-])c2ccccc21 | – | inactive: -16% |
| Cc1ccccc1N1CCN(Cc2c(C#N)c3ccccc3n2C)CC1 | inconclusive [activator, full curve, poor fit] | – |
| O=C(c1ccc(COc2c(F)c(F)c(F)c(F)c2F)o1)N1CCOCC1 | – | inactive: -30% |
| O=C(Nc1ccc(NC(=O)c2cccs2)cc1)c1ccc2c(c1)OCCO2 | – | inactive: 1.61% |
| COc1cnc(-c2ccccn2)nc1Sc1c(Cl)cccc1Cl | inconclusive [activator, partial curve, poor fit] | – |
| COc1ccc(NC(=O)COc2cccc3c2CCN(Cc2cccnc2)C3=O)c(OC)c1 | inconclusive [activator, full curve] | – |
| Cc1cc(C)nc(NS(=O)(=O)c2ccc(NC(=S)NC(=O)C(C)(C)C)cc2)n1 | – | inactive: -5.85% |
| COc1ccc(C(=O)NCCSc2c(C)[nH]c3ccccc23)cc1 | inconclusive [activator, single point] | – |

Reference: PubChem BioAssay AID1347071 (National Center for Advancing Translational Sciences (NCATS), 2019)
